Our source for the cytotoxicity call and growth inhibition call values is the antibiotic and cytotoxicity screens of Wong et al. (2023).

Some of the results follow.

One test has as its system HSkMC. In words: cytotoxicity call (relative viability < 0.9). As to conditions: 10 µM.
The subject of another test is HepG2. In words: cytotoxicity call (relative viability < 0.9). To be noted: 10 µM.
A further test deals with S. aureus RN4220. In words: growth inhibition call (relative growth <= 0.2). To be noted: 50 µM.

With `NC(=O)NCCCC(N)C(=O)O` (centres undefined), the cytotoxicity call in the test on HSkMC and in the test on HepG2 was “inactive” each time. Also, in the test on S. aureus RN4220, the growth inhibition call is “inactive”.

As to `NC(=O)[C@H]1CCCCN1`, the cytotoxicity call with HSkMC and in the test on HepG2 was “inactive” in each case. The growth inhibition call with S. aureus RN4220 was “inactive”.

Consider `Cc1noc(C)c1NC(=O)N(C)C[C@@H]1Oc2ccc(NC(=O)CCN3CCOCC3)cc2C(=O)N([C@@H](C)CO)C[C@@H]1C`, for which the cytotoxicity call with HSkMC and with HepG2 was “inactive” each time. Moreover, the growth inhibition call in the test on S. aureus RN4220 was “inactive”.

For the compound `O=C(C[C@H]1CC[C@@H]2[C@H](COC[C@H](O)CN2C(=O)Nc2cccc(Cl)c2)O1)NCCCN1CCOCC1`, the cytotoxicity call with HSkMC and in the test on HepG2 was “inactive” in each case. In addition, in the test with S. aureus RN4220, the growth inhibition call is “inactive”.

As to `Cc1noc(C)c1NC(=O)Nc1ccc2c(c1)CC(=O)N([C@@H](C)CO)C[C@H](C)[C@@H](CN(C)Cc1ccc(Cl)c(Cl)c1)O2`, the cytotoxicity call in the test on HSkMC and in the test on HepG2 was “inactive” each time. Further, the growth inhibition call in the test with S. aureus RN4220 is “inactive”.

As to `C[C@H](CO)N1C[C@H](C)[C@H](CN(C)C(=O)Nc2ccccc2)Oc2ccc(NC(=O)Cn3cnnn3)cc2CC1=O`, the cytotoxicity call in the test on HSkMC and with HepG2 was “inactive” each time. For the same compound, the growth inhibition call in the test with S. aureus RN4220 is “inactive”.

As for `O=C(CCCCC(=O)N/N=C/[C@@H](O)[C@@H](O)[C@H](O)[C@H](O)CO)NO`, the cytotoxicity call in the test with HSkMC and in the test with HepG2 was “inactive” throughout. In the test with S. aureus RN4220, the growth inhibition call is “inactive”.

With `C[C@@H]1CCCCO[C@H](CN(C)Cc2ccc(C(F)(F)F)cc2)[C@@H](C)CN([C@@H](C)CO)C(=O)c2cc(NS(C)(=O)=O)ccc2O1`, the cytotoxicity call with HSkMC and in the test on HepG2 was “inactive” throughout. In addition, the growth inhibition call with S. aureus RN4220 was “inactive”.

As for `COCC(=O)N(C)C[C@H]1Oc2cc(C#Cc3cccnc3)ccc2S(=O)(=O)N([C@H](C)CO)C[C@H]1C`, the cytotoxicity call with HSkMC and in the test with HepG2 was “inactive” in each case. In addition, in the test on S. aureus RN4220, the growth inhibition call is “inactive”.

Regarding `C[C@@H]1CN([C@H](C)CO)C(=O)c2cc(NS(=O)(=O)c3ccc(F)cc3)ccc2O[C@H]1CN(C)Cc1ccncc1`, the cytotoxicity call in the test on HSkMC and in the test on HepG2 was “inactive” throughout. Also, in the test with S. aureus RN4220, the growth inhibition call was “inactive”.

With `Cc1nc(-c2cccc(F)c2)cs1`, the cytotoxicity call in the test on HSkMC and in the test with HepG2 was “inactive” each time. Besides, in the test with S. aureus RN4220, the growth inhibition call is “inactive”.

With `COc1ccc(S(=O)(=O)Nc2ccc3c(c2)C(=O)N([C@H](C)CO)C[C@@H](C)[C@@H](CN(C)Cc2ccccc2)OCCCC[C@@H](C)O3)cc1`, the cytotoxicity call in the test on HSkMC and in the test on HepG2 was “inactive” throughout. In addition, the growth inhibition call in the test on S. aureus RN4220 is “inactive”.

As for `O=C(C1=C[C@H](c2ccc(Br)cc2)C[C@H](OCc2ccc(CO)cc2)O1)N1CCCCCCC1`, the cytotoxicity call in the test with HSkMC and in the test with HepG2 was “inactive” each time. Besides, the growth inhibition call in the test on S. aureus RN4220 was “inactive”.

For `O=C1N[C@H](Cc2c[nH]c3ccccc23)COC(=O)[C@@H](Cc2ccc(F)cc2)CC=CC[C@H]1CC(=O)N(CCO)Cc1ccccc1`, the cytotoxicity call with HSkMC and in the test with HepG2 was “inactive” in each case. Moreover, the growth inhibition call with S. aureus RN4220 is “inactive”.

With `C[C@H](CO)N1C[C@H](C)[C@H](CN(C)Cc2ccc(-c3ccccc3)cc2)Oc2ccc(NC(=O)NC3CCCCC3)cc2C1=O`, the cytotoxicity call with HSkMC and in the test with HepG2 was “inactive” throughout. Also, the growth inhibition call in the test on S. aureus RN4220 was “inactive”.

Turning to `COc1ccc(S(=O)(=O)Nc2ccc3c(c2)C(=O)N([C@H](C)CO)C[C@H](C)[C@@H](CN(C)S(=O)(=O)c2ccc(F)cc2)O3)cc1`, the cytotoxicity call in the test with HSkMC and in the test with HepG2 was “inactive” throughout. The growth inhibition call in the test with S. aureus RN4220 is “inactive”.

Turning to `CCOc1ccccc1OCCNC(C)Cc1ccc(OC)c(S(N)(=O)=O)c1.Cl` (centres undefined), the cytotoxicity call in the test on HSkMC and with HepG2 was “inactive” in each case. For the same compound, in the test on S. aureus RN4220, the growth inhibition call is “inactive”.

For the compound `COc1cc(/C=C/C(=O)CC2=N/C(=N/Cc3ccc4c(c3)OCO4)S[C@H](c3ccc(O)c(OC)c3)C2)ccc1O`, the cytotoxicity call in the test with HSkMC and with HepG2 was “inactive” each time. Further, the growth inhibition call in the test with S. aureus RN4220 was “inactive”.

`C[C@H](CO)N1C[C@H](C)[C@@H](CN(C)Cc2ccc(C(F)(F)F)cc2)Oc2c(NC(=O)Nc3ccccc3)cccc2C1=O`: the cytotoxicity call in the test with HSkMC and in the test on HepG2 was “inactive” in each case. For the same compound, the growth inhibition call in the test on S. aureus RN4220 is “inactive”.

Turning to `Cc1ccc(S(=O)(=O)Nc2cccc3c2O[C@@H](CN(C)S(=O)(=O)c2c(C)noc2C)[C@@H](C)CN([C@H](C)CO)C3=O)cc1`, the cytotoxicity call with HSkMC and in the test with HepG2 was “inactive” in each case. Further, the growth inhibition call in the test with S. aureus RN4220 was “inactive”.

On to `C[C@H]1CN([C@@H](C)CO)S(=O)(=O)c2ccc(C#CC(C)(C)O)cc2O[C@H]1CN(C)Cc1ccncc1`, for which the cytotoxicity call in the test on HSkMC and in the test on HepG2 was “inactive” throughout. Moreover, in the test on S. aureus RN4220, the growth inhibition call was “inactive”.

For the compound `C[C@H](CO)N1C[C@H](C)[C@H](CN(C)C(=O)Nc2ccccc2)Oc2ccc(NS(=O)(=O)c3cn(C)cn3)cc2C1=O`, the cytotoxicity call in the test with HSkMC is “inactive”. In addition, the cytotoxicity call with HepG2 is “active”. The growth inhibition call in the test with S. aureus RN4220 was “inactive”.

In the case of `C[C@@H]1CCCCO[C@@H](CN(C)S(=O)(=O)c2ccc(Cl)cc2)[C@@H](C)CN([C@@H](C)CO)C(=O)c2cc(NC(=O)NC3CCCCC3)ccc2O1`, the cytotoxicity call in the test with HSkMC is “inactive”. Moreover, the cytotoxicity call in the test with HepG2 was “active”. Besides, the growth inhibition call with S. aureus RN4220 was “inactive”.

With `C[C@H]1CN([C@@H](C)CO)C(=O)CCCn2cc(nn2)CO[C@H]1CN(C)S(C)(=O)=O`, the cytotoxicity call in the test with HSkMC and in the test on HepG2 was “inactive” throughout. Besides, the growth inhibition call in the test on S. aureus RN4220 is “inactive”.

In the case of `CO[C@H]1CCN(C(=O)CN(C)C)[C@@H]2CCO[C@@H]12`, the cytotoxicity call in the test with HSkMC and with HepG2 was “inactive” throughout. In addition, the growth inhibition call with S. aureus RN4220 is “inactive”.

Regarding `CCCC(=O)NCc1nccc(N(C)C)n1`, the cytotoxicity call in the test on HSkMC and in the test on HepG2 was “inactive” each time. Besides, in the test with S. aureus RN4220, the growth inhibition call is “inactive”.

Consider `COc1ccccc1C#Cc1cnc2c(c1)C(=O)N([C@@H](C)CO)C[C@H](C)[C@H](CN(C)C(=O)c1ccc3c(c1)OCO3)O2`, for which the cytotoxicity call with HSkMC and in the test with HepG2 was “inactive” in each case. In addition, the growth inhibition call in the test with S. aureus RN4220 is “inactive”.

For the compound `COc1ccc(NC(=O)N(C)C[C@@H]2OCCCC[C@@H](C)Oc3ccc(NC(=O)c4ccncc4)cc3C(=O)N([C@H](C)CO)C[C@H]2C)cc1`, the cytotoxicity call in the test on HSkMC (human skeletal muscle cells) and with HepG2 was “inactive” each time. In the test with S. aureus RN4220, the growth inhibition call is “inactive”.
